# Over roughly 33,000 sequences, “E-score (-0.5 to 0.5)” has its median near -0.032; the highest 2% begin near 0.36. Some of the results follow.
# Biological target: T1, Sko1 (UniProt Q02100)
# T1 sequence: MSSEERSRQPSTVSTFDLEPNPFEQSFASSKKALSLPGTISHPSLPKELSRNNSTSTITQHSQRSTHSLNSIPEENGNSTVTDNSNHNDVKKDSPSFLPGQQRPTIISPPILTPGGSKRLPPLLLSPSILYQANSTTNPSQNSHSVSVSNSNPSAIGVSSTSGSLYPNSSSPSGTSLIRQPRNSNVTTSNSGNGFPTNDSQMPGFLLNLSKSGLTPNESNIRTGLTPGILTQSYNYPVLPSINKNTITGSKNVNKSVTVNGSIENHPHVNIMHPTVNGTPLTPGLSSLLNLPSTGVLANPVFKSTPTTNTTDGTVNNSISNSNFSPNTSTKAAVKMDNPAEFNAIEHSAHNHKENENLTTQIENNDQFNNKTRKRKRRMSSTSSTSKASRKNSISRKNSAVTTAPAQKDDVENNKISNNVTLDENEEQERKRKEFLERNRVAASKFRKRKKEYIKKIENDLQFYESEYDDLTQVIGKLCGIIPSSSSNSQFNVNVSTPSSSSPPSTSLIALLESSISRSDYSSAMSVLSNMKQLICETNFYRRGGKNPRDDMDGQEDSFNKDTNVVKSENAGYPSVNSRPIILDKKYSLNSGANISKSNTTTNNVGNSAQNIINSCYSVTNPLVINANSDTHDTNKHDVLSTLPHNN
# Experiment: PBM E-score (8-mer binding enrichment) (E-score (-0.5 to 0.5)); higher = stronger / more preferred TF binding; most listed sequences are background and not binding sites
# Settings: protein concentration: 200 nM; construct: GST-full length
# Method in brief: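 Using PURExpress in vitro transcription/translation, GST-tagged yeast transcription factors were made in full-length or DNA-binding-domain form. These were applied at about 100-200 nM to double-stranded universal all-10-mer Agilent arrays, and bound protein was detected with fluorescent anti-GST. Scans were normalised with masliner before the Universal PBM Analysis Suite assigned E-scores to ungapped eight-base words pooled with their reverse complements.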
row,Sequence,PBM E-score
1,GCGCGCCC,-0.239
2,CTACAACA,-0.00923
3,ACTATTGC,0.114
4,AAGTGAAA,0.0681
5,CTTAATCA,0.0983
6,ACGACATA,0.354
7,AGCAGCGA,-0.171
8,AACGTTGC,0.176
9,GCAAACCC,-0.249
10,GTAAGGGA,0.107
11,AAACGGGT,-0.143
12,CCTATAGG,-0.205
13,CACCGCCC,-0.141
14,CTTGCTGA,-0.0392
15,CGAGTGTA,-0.0343
16,CGCGAGTC,-0.0174
17,ACACGGAT,-0.00693
18,CTAGGACA,-0.157
19,ACAATACT,0.151
20,AAGCTTCA,-0.111
21,TGCATAAA,0.191
22,AAGACTCT,-0.07
23,GGTTGTCA,-0.134
24,AGGACCTC,-0.239
25,AGTTCCGA,-0.067

row,Sequence,PBM E-score
1,ACTTCGTC,0.165
2,GCATTTGA,0.134
3,ACGGGGTA,-0.0628
4,CCGACTTC,-0.423
5,CACGAAGC,0.0394
6,ACTTGCCT,0.033
7,GTTTCCCA,-0.143
8,GATGCGAC,-0.0585
9,AAAATTCC,-0.152
10,CGCGGCAC,-0.149
11,ACAGTCGT,-0.0126
12,GAACAGCA,0.0516
13,GTGGCGAA,-0.0119
14,GAAACGTA,0.398
15,CCGAGGAC,-0.166
16,ATGACAAC,0.269
17,AAGCGACT,-0.0317
18,GCTCAACA,-0.0263
19,ACGGGCAG,-0.167
20,CCACAGTA,0.126
21,GAGATTAA,0.0696
22,ATTTGTTA,0.154
23,AGAGGCTC,-0.268
24,CATTAATG,0.13
25,GGGACTAC,-0.228

row,Sequence,PBM E-score
1,CTTGGTAC,0.17
2,AATATGCC,-0.24
3,CTTTTCAC,0.105
4,CTGATTAA,0.118
5,CAGTAATA,0.257
6,CGAGCGGA,-0.044
7,CAATGCAC,0.0332
8,GAGGGCGC,-0.132
9,GGAGAGCA,-0.26
10,CATAGATG,-0.242
11,GACGCAGA,0.194
12,GGAAGGAC,-0.112
13,GAGTTAAA,0.0434
14,ATCTGAAG,-0.0841
15,AATCGTTC,0.0316
16,CCTGGGTC,-0.197
17,AGTTGATG,0.111
18,AAGTACAG,-0.0644
19,CGCAGCAA,-0.0188
20,AAATTGCT,0.0342
21,GGGCGCTA,-0.0254
22,ATCCCAAG,-0.247
23,ACCCACAC,-0.0169
24,TGTCTAAA,0.196
25,CGTCCAAG,-0.155

row,Sequence,PBM E-score
1,ATCTTATC,0.0347
2,AGATGTCG,-0.045
3,ACCCGCGA,-0.176
4,AACTCGGG,-0.12
5,AGGCGGCA,-0.145
6,CCTAAGAC,-0.162
7,CATGGTCG,-0.101
8,GGCAACCC,-0.242
9,AACACATT,0.041
10,CAACACTA,0.15
11,GAAATGGA,-0.149
12,ACTATGCT,-0.0356
13,AGTTGTCG,0.178
14,TTAAATAA,0.117
15,TCGCGCAA,0.241
16,ACAAGGCG,-0.232
17,ATCCGTAA,0.0757
18,CAGGAATG,0.0412
19,CGTGGAGC,-0.183
20,GAGCAGAA,-0.0557
21,CGCGCCTA,-0.0485
22,GGATAGGA,-0.104
23,ACTTGGAT,0.0792
24,TGAGTAAA,0.0672
25,AAAAAAAT,0.149

row,Sequence,PBM E-score
1,CTCAGAGC,-0.163
2,GAAAACGA,0.0788
3,TGGTAACA,0.215
4,AAATTACC,0.0333
5,AGAGTAGC,-0.00834
6,GAGAAAAC,-0.00846
7,ATATGAAA,0.115
8,ATAATTGG,-0.0453
9,AATATAGT,0.173
10,CTGCAGTC,-0.113
11,TCCGACCA,-0.247
12,TATCAGAA,0.0439
13,ATGAGTTC,-0.0909
14,ATAACCGG,-0.211
15,AGACTATG,-0.0224
16,GTATTATA,0.235
17,CCCAAGTC,-0.34
18,CACAGAAA,0.0195
19,GACTATGA,0.19
20,CGGCATAA,-0.051
21,CCTCTCAC,0.0369
22,TTAACCAA,0.0412
23,GAAACGCA,0.126
24,CTCAGGGC,-0.255
25,CTGCCTCC,-0.241

row,Sequence,PBM E-score
1,AAAGGGGC,-0.272
2,TCCCTACA,0.0727
3,AAGCCGGG,-0.114
4,GTAGGAAC,0.132
5,GAATACCA,0.111
6,CGTTGTGA,0.105
7,CTTCCGCA,-0.22
8,CTATGGAA,-0.0767
9,CTGGAAAG,-0.161
10,ACATATCA,0.173
11,CGAGTGGC,-0.313
12,CAAACATG,0.0181
13,ACCTTGGC,-0.147
14,CACAATAC,0.101
15,ACGTCGTC,0.387
16,AGCCAAAA,-0.0432
17,AGTTCGTA,0.26
18,TGCGTCCA,0.155
19,CTTGGTTC,0.0171
20,CCCGGTAC,-0.0432
21,CCTGCACA,-0.226
22,ATGCATAA,0.175
23,CTTGGTGC,-0.315
24,ATGCATCC,-0.281
25,GAATCCTA,-0.00199

row,Sequence,PBM E-score
1,CTAGGGCA,-0.422
2,AGTCTCGC,0.0689
3,AAAGCCTA,0.0391
4,TCTCTTCA,-0.0732
5,CTCCCCAG,-0.352
6,ATGTGTTA,0.242
7,TAGGTGAA,0.145
8,GCGACCAA,-0.0498
9,CGCGTAAA,0.311
10,AACGGCAA,0.00579
11,CATTCATA,0.105
12,ACCCTAAG,-0.189
13,CTCCTCAC,-0.183
14,GTAGTCCA,0.0309
15,GCGCGGCA,-0.112
16,TACCGTAA,0.253
17,AAAGGGTC,-0.231
18,AGGGCACG,-0.0627
19,GCTATCGA,-0.126
20,TCAACACA,0.231
21,AGTCCAAT,-0.021
22,CTCAATAA,-0.0259
